# Data from the supplement of paper PMC8728848.
# The list shows a part of the results.
# B1: Calsepa (Calystegia sepium), P93114 (protein)
# chain: MAVPMDTISGPWGNNGGNFWSFRPVNKINQIVISYGGGGNNPIALTFSSTKADGSKDTITVGGGGPDSITGTEMVNIGTDEYLTGISGTFGIYLDNNVLRSITFTTNLKAHGPYGQKVGTPFSSANVVGNEIVGFLGRSGYYVDAIGTYNRHK
# Experiments:
# Assay in all cases: glycan array binding signal (z-score within array); higher = stronger binding
# Settings in all cases: glycan notation: IUPAC condensed, linker removed
# [1] = molecular target: Fuc(a1-2)Gal(b1-4)[Fuc(a1-3)]GlcNAc(b1-2)Man(a1-3)[Fuc(a1-2)Gal(b1-4)[Fuc(a1-3)]GlcNAc(b1-2)Man(a1-6)]Man(b1-4)GlcNAc(b1-4)GlcNAc
# Procedure, shortened: (§1)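 The binding signal is a Z-score computed within each array and averaged over linkers. Arrays of the same protein sequence at different concentrations or buffers were also averaged together. Data originate from 3228 arrays in the Consortium for Functional Glycomics database, kept only where the protein sequence was available.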
# [2] = molecular target: Fuc(a1-2)Gal(b1-4)[Fuc(a1-3)]GlcNAc(b1-2)Man(a1-6)[Fuc(a1-2)Gal(b1-4)[Fuc(a1-3)]GlcNAc(b1-2)Man(a1-3)]Man(b1-4)GlcNAc(b1-4)[Fuc(a1-6)]GlcNAc
# Procedure, shortened: as §1
# [3] = molecular target: Fuc(a1-2)Gal(b1-4)[Fuc(a1-3)]GlcNAc(b1-2)[Fuc(a1-2)Gal(b1-4)[Fuc(a1-3)]GlcNAc(b1-4)]Man(a1-3)[Fuc(a1-2)Gal(b1-4)[Fuc(a1-3)]GlcNAc(b1-2)Man(a1-6)]Man(b1-4)GlcNAc(b1-4)GlcNAc
# Procedure, shortened: as §1
# [4] = molecular target: Fuc(a1-2)Gal(b1-4)[Fuc(a1-3)]GlcNAc(b1-3)Gal(b1-4)[Fuc(a1-3)]GlcNAc
# Procedure, shortened: as §1
# [5] = molecular target: Fuc(a1-2)Gal(b1-4)[Fuc(a1-3)]GlcNAc(b1-3)Gal(b1-4)[Fuc(a1-3)]GlcNAc(b1-3)Gal(b1-4)[Fuc(a1-3)]GlcNAc
# Procedure, shortened: as §1
# [6] = molecular target: Fuc(a1-2)Gal(b1-4)[Fuc(a1-3)]GlcNAc(b1-3)GalNAc
# Procedure, shortened: as §1
# [7] = molecular target: Fuc(a1-2)Gal(b1-4)[Fuc(a1-3)]GlcNAc(b1-3)[Neu5Ac(a2-6)Gal(b1-4)GlcNAc(b1-6)]Gal(b1-4)Glc
# Procedure, shortened: as §1
# [8] = molecular target: Fuc(a1-2)Gal6S(b1-3)GlcNAc
# Procedure, shortened: as §1
# [9] = molecular target: Fuc(a1-2)Gal6S(b1-3)GlcNAc6S
# Procedure, shortened: as §1
# Fuc(a1-2)Gal6S(b1-4)Glc = molecular target: Fuc(a1-2)Gal6S(b1-4)Glc
# Procedure, shortened: as §1
# [10] = molecular target: Fuc(a1-2)Gal6S(b1-4)Glc6S
# Procedure, shortened: as §1
# [11] = molecular target: Fuc(a1-2)Gal6S(b1-4)GlcNAc
# Procedure, shortened: as §1
# Fuc(a1-2)[Gal(a1-3)]Gal = molecular target: Fuc(a1-2)[Gal(a1-3)]Gal
# Procedure, shortened: as §1
# [12] = molecular target: Fuc(a1-2)[Gal(a1-3)]Gal(b1-3)GalNAc
# Procedure, shortened: as §1
# [13] = molecular target: Fuc(a1-2)[Gal(a1-3)]Gal(b1-3)GlcNAc
# Procedure, shortened: as §1
# [14] = molecular target: Fuc(a1-2)[Gal(a1-3)]Gal(b1-3)GlcNAc(b1-2)Man(a1-3)[Fuc(a1-2)[Gal(a1-3)]Gal(b1-3)GlcNAc(b1-2)Man(a1-6)]Man(b1-4)GlcNAc(b1-4)GlcNAc
# Procedure, shortened: as §1
# [15] = molecular target: Fuc(a1-2)[Gal(a1-3)]Gal(b1-3)GlcNAc(b1-2)Man(a1-3)[Fuc(a1-2)[Gal(a1-3)]Gal(b1-3)GlcNAc(b1-2)Man(a1-6)]Man(b1-4)GlcNAc(b1-4)[Fuc(a1-6)]GlcNAc
# Procedure, shortened: as §1
# [16] = molecular target: Fuc(a1-2)[Gal(a1-3)]Gal(b1-3)GlcNAc(b1-3)GalNAc
# Procedure, shortened: as §1
# [17] = molecular target: Fuc(a1-2)[Gal(a1-3)]Gal(b1-4)Glc
# Procedure, shortened: as §1
# [18] = molecular target: Fuc(a1-2)[Gal(a1-3)]Gal(b1-4)GlcNAc
# Procedure, shortened: as §1
# [19] = molecular target: Fuc(a1-2)[Gal(a1-3)]Gal(b1-4)GlcNAc(b1-2)Man(a1-3)[Fuc(a1-2)[Gal(a1-3)]Gal(b1-4)GlcNAc(b1-2)Man(a1-6)]Man(b1-4)GlcNAc(b1-4)GlcNAc
# Procedure, shortened: as §1
# [20] = molecular target: Fuc(a1-2)[Gal(a1-3)]Gal(b1-4)GlcNAc(b1-2)Man(a1-3)[Fuc(a1-2)[Gal(a1-3)]Gal(b1-4)GlcNAc(b1-2)Man(a1-6)]Man(b1-4)GlcNAc(b1-4)[Fuc(a1-6)]GlcNAc
# Procedure, shortened: as §1
# [21] = molecular target: Fuc(a1-2)[Gal(a1-3)]Gal(b1-4)GlcNAc(b1-3)GalNAc
# Procedure, shortened: as §1
# [22] = molecular target: Fuc(a1-2)[Gal(a1-3)]Gal(b1-4)GlcNAc(b1-6)GalNAc
# Procedure, shortened: as §1
# [23] = molecular target: Fuc(a1-2)[Gal(a1-3)]Gal(b1-4)[Fuc(a1-3)]Glc
# Procedure, shortened: as §1
# [24] = molecular target: Fuc(a1-2)[Gal(a1-3)]Gal(b1-4)[Fuc(a1-3)]GlcNAc
# Procedure, shortened: as §1
# [25] = molecular target: Fuc(a1-2)[Gal(a1-3)]Gal(b1-4)[Fuc(a1-3)]GlcNAc(b1-3)GalNAc
# Procedure, shortened: as §1
# [26] = molecular target: Fuc(a1-2)[Gal(a1-4)]Gal(b1-4)GlcNAc
# Procedure, shortened: as §1
# [27] = molecular target: Fuc(a1-2)[GalNAc(a1-3)]Gal
# Procedure, shortened: as §1
# [28] = molecular target: Fuc(a1-2)[GalNAc(a1-3)]Gal(b1-3)GalNAc(a1-3)[Fuc(a1-2)]Gal(b1-4)GlcNAc
# Procedure, shortened: as §1
# [29] = molecular target: Fuc(a1-2)[GalNAc(a1-3)]Gal(b1-3)GlcNAc
# Procedure, shortened: as §1
# [30] = molecular target: Fuc(a1-2)[GalNAc(a1-3)]Gal(b1-3)GlcNAc(b1-2)Man(a1-3)[Fuc(a1-2)[GalNAc(a1-3)]Gal(b1-3)GlcNAc(b1-2)Man(a1-6)]Man(b1-4)GlcNAc(b1-4)GlcNAc
# Procedure, shortened: as §1
# [31] = molecular target: Fuc(a1-2)[GalNAc(a1-3)]Gal(b1-3)GlcNAc(b1-2)Man(a1-3)[Fuc(a1-2)[GalNAc(a1-3)]Gal(b1-3)GlcNAc(b1-2)Man(a1-6)]Man(b1-4)GlcNAc(b1-4)[Fuc(a1-6)]GlcNAc
# Procedure, shortened: as §1
# [32] = molecular target: Fuc(a1-2)[GalNAc(a1-3)]Gal(b1-3)GlcNAc(b1-3)GalNAc
# Procedure, shortened: as §1
# [33] = molecular target: Fuc(a1-2)[GalNAc(a1-3)]Gal(b1-3)GlcNAc(b1-6)GalNAc
# Procedure, shortened: as §1
# [34] = molecular target: Fuc(a1-2)[GalNAc(a1-3)]Gal(b1-4)Glc
# Procedure, shortened: as §1
# [35] = molecular target: Fuc(a1-2)[GalNAc(a1-3)]Gal(b1-4)GlcNAc
# Procedure, shortened: as §1
# [36] = molecular target: Fuc(a1-2)[GalNAc(a1-3)]Gal(b1-4)GlcNAc(b1-2)Man(a1-3)[Fuc(a1-2)[GalNAc(a1-3)]Gal(b1-4)GlcNAc(b1-2)Man(a1-6)]Man(b1-4)GlcNAc(b1-4)GlcNAc
# Procedure, shortened: as §1
binder,measurement,setting,value
B1,glycan array binding signal (z-score),[1],-0.226
same,glycan array binding signal (z-score),[2],-0.267
same,glycan array binding signal (z-score),[3],-0.257
same,glycan array binding signal (z-score),[4],-0.252
same,glycan array binding signal (z-score),[5],-0.246
same,glycan array binding signal (z-score),[6],-0.26
same,glycan array binding signal (z-score),[7],-0.274
same,glycan array binding signal (z-score),[8],-0.274
same,glycan array binding signal (z-score),[9],-0.26
same,glycan array binding signal (z-score),Fuc(a1-2)Gal6S(b1-4)Glc,-0.253
same,glycan array binding signal (z-score),[10],-0.244
same,glycan array binding signal (z-score),[11],-0.241
same,glycan array binding signal (z-score),Fuc(a1-2)[Gal(a1-3)]Gal,-0.247
same,glycan array binding signal (z-score),[12],-0.272
same,glycan array binding signal (z-score),[13],-0.259
same,glycan array binding signal (z-score),[14],-0.227
same,glycan array binding signal (z-score),[15],-0.269
same,glycan array binding signal (z-score),[16],-0.27
same,glycan array binding signal (z-score),[17],-0.256
same,glycan array binding signal (z-score),[18],-0.249
same,glycan array binding signal (z-score),[19],0.713
same,glycan array binding signal (z-score),[20],-0.244
same,glycan array binding signal (z-score),[21],-0.269
same,glycan array binding signal (z-score),[22],-0.273
same,glycan array binding signal (z-score),[23],-0.271
same,glycan array binding signal (z-score),[24],-0.258
same,glycan array binding signal (z-score),[25],-0.274
same,glycan array binding signal (z-score),[26],-0.251
same,glycan array binding signal (z-score),[27],-0.245
same,glycan array binding signal (z-score),[28],-0.271
same,glycan array binding signal (z-score),[29],-0.225
same,glycan array binding signal (z-score),[30],-0.222
same,glycan array binding signal (z-score),[31],-0.272
same,glycan array binding signal (z-score),[32],-0.27
same,glycan array binding signal (z-score),[33],-0.269
same,glycan array binding signal (z-score),[34],-0.252
same,glycan array binding signal (z-score),[35],-0.243
same,glycan array binding signal (z-score),[36],0.343
